In PubChem BioAssay AID686970 (National Center for Advancing Translational Sciences (NCATS), 2013):
The whole screen tested about 360,000 compounds, of which about 6,000 (1.7%) were called active. Inconclusive results, whose numbers are uncertain, are shown with a selection of clear calls. The call rests on the fitted dose curve; in most records, active means well fitted cell-killing curve with a large enough effect; inconclusive means small, poorly fitted or top-dose-only effect, or effect the other way; inactive means flat fitted curve, though single readings scatter. No potency is given beside an inconclusive call; the fits are too rough.

Experiment: qHTS for induction of synthetic lethality in tumor cells producing 2HG: qHTS for the HT-1080-NT fibrosarcoma cell line;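 further: NT is the 2HG producing partner of a matched IDH1 knockdown line; nearly all actives have a fitted effect of over 55% in size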;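 on activity, negative = less viability: 0% = DMSO-treated cells and -100% = media-only wells without cells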
Settings: HT-1080-NT fibrosarcoma viability, CellTiter-Glo ATP luminescence, 48 h; activity, negative = less viability: at 46.1 µM (top of the series) unless noted
Method in brief: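 750 cells/well, RPMI + 5% FBS; 2 h settle, compound pin-transfer, 48 h at 37 degrees C. CellTiter-Glo 10 min RT, luminescence. Normalized to DMSO and media-only wells.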
Potency means the concentration at half of the fitted maximal effect; tags describe the fitted curve by direction and shape.

SMILES | Potency | activity, negative = less viability
Fc1ccc(N=c2ssnc2Cl)c(F)c1 | inconclusive [cytotoxic, single point] | 
O=CC1=C(c2ccccc2)Oc2ccccc2O1 | inconclusive [cytotoxic, single point] | 
CN(Cc1cccs1)C(=O)COc1ccc(-c2nnco2)cc1 | inactive | 
O=C1N[C@H](Cc2ccccc2)COC(=O)[C@@H](Cc2ccc(F)cc2)C/C=C\C[C@H]1CC(=O)N(CCO)Cc1ccccc1 | inconclusive [cytotoxic, single point] | 
COc1ccc(NC(=O)c2ccc(NC(=O)c3nc4nccc(C)n4n3)cc2)cc1 |  | inactive: -7.97% [at 9.24 µM]
CN(C)CCNc1ncnc2c1sc1nc(-c3ccccc3)c3c(c12)CCCC3 | active: 10.3 µM | 
Nc1ccnc(Oc2ccc(F)cc2)c1 | inconclusive [rising, single point] | 
Cc1ccc(C2CC2/C(=N/O)c2ccc(F)cc2)cc1 (stereo unspecified) | inconclusive [cytotoxic, single point] | 
CCOc1ccc(C(O)(CCC(C)C)C(CN2CCOCC2)c2ccccc2)cc1 (stereo unspecified) | inconclusive [cytotoxic, single point] | 
COc1cc(CNCCc2ccccc2)cc(Cl)c1OCc1ccccc1 | active: 13 µM | 
COc1cccc(-c2c(-c3cc(OC)cc(OC)c3)n(C)c3ccc(-c4cnc(N5CCOCC5)nc4)cc23)c1 | inconclusive [rising, partial curve] | 
COc1ccccc1N(CC(=O)NC1CCCCC1)C(=O)Cn1nnc(-c2ccc(C)o2)n1 | inactive | 
CC(C)(C)c1ccc(-n2ncc3c2CCCC3NC(=O)CN2CCCCC2=O)cc1 (stereo unspecified) | inconclusive [cytotoxic, single point] | 
C=CCNc1nc(NCCCN2CCCC2=O)c2sc(-c3ccccc3)cc2n1 | inconclusive [cytotoxic, single point] | 
Cc1ccccc1CS(=O)(=O)c1snnc1C | inactive | 
CCn1cc([N+](=O)[O-])c(C(=O)N2N=C(c3ccc4ccccc4c3)CC2c2cc(Br)ccc2O)n1 (stereo unspecified) | active: 20.6 µM | 
CCOCCCNC(=O)c1cc2c(=O)[nH]c3ccccc3c2s1 | inconclusive [rising, full curve, poor fit] | 
COc1ccc(OC)c(S(=O)(=O)ON2C(=O)c3ccccc3C2=O)c1 | inconclusive [cytotoxic, partial curve, poor fit] | 
CC1CC(C)(C)NC(=S)N1CCC(=O)Nc1ccc2c(c1)OCCO2 (stereo unspecified) | inconclusive [cytotoxic, single point] | 
CC(C)CCNC(=O)c1sc2ccc(S(=O)(=O)N3CCCCC3)cc2c1N | inconclusive [cytotoxic, single point] | 
O=C(/C=C/c1ccc(Cl)c([N+](=O)[O-])c1)Nc1ccc(NC(=O)c2ccco2)cc1 | inactive | 
CCOC(=O)/C(C#N)=C1/C=C(C)NC(c2ccccc2O)=N1 | inconclusive [cytotoxic, single point] | 
Nc1ncnc2c1ncn2[C@@H]1O[C@H](COS(=O)(=O)O)[C@@H](O)[C@H]1O | inactive | 

SMILES | Potency | activity, negative = less viability
c1ccc(C2Nc3ccccc3C3OCCCC23)cc1 (stereo unspecified) | inconclusive [cytotoxic, single point] | 
Cc1ccc(C(=O)N(c2ccccc2)C2CC(C)N(C(=O)c3ccco3)c3ccccc32)cc1 (stereo unspecified) | inconclusive [cytotoxic, single point] | 
Cc1ccc(-c2csc(N(CCCN(C)C)C(=O)c3ccco3)n2)cc1 | inconclusive [cytotoxic, partial curve] | 
COc1ccc(CCNC(=O)CCc2nc3ccccc3[nH]2)cc1OC | inconclusive [rising, partial curve] | 
C=CC[C@@H](Cc1ccc(F)cc1)C(=O)OC[C@@H]1CCCN1C(=O)[C@@H](CC=C)CC(=O)N(CCO)Cc1ccccc1 | inconclusive [cytotoxic, single point] | 
Cc1c(C(=O)N2CCCC2)c(S(=O)(=O)Nc2ccccc2Cl)c(C)n1C | inactive | 
CCCC(=O)NC(Nc1ccc(S(=O)(=O)Nc2cc(C)on2)cc1)(C(F)(F)F)C(F)(F)F | inactive | 
COc1ccc(Br)cc1C(=O)Nc1ccc(NC(=O)c2ccco2)cc1 | inactive | 
NC(=O)NC(Cc1ccccc1)C(=O)NCC1(N2CCCCC2)CCCCC1 (stereo unspecified) | inactive | 
COc1cc(/C=N/N2CCN(C3c4ccccc4-c4ccccc43)CC2)ccc1O | inconclusive [cytotoxic, single point] | 
COc1ccc(C(=O)NCC(=O)O)cc1 | inactive | 
Cc1cccc(CCN2C(N(C)C)=NC[C@@H]2Cc2ccccc2)c1 | inconclusive [cytotoxic, partial curve] | 
CN1CCN(CCCNCc2cn(CCC#N)c3ccccc23)CC1 | inactive | 
CN(C)c1nc2n(c(=S)n1)CCS2 | inactive | 
Cc1ccc(Sc2ccc(/C=N/O)cc2[N+](=O)[O-])cc1 | inconclusive [cytotoxic, single point] | 
Cc1ccc(NC(=O)CN(C)S(=O)(=O)c2cccc3cccnc23)cc1C | inactive | 
Nc1nc(N)c2[nH]cnc2n1 | inconclusive [cytotoxic, single point] | 
CC1(C)CC[C@]2(C(=O)n3ccnc3)CC[C@]3(C)[C@H](C(=O)C=C4[C@@]5(C)C=C(C#N)C(=O)C(C)(C)[C@@H]5CC[C@]43C)[C@@H]2C1 | active: 4.11 µM | 
CC[n+]1c(C)cc2c(sc3ccccc32)c1C | active: 5.17 µM | 
Cc1ccc(S(=O)(=O)n2nc(C)cc2C)cc1 |  | inconclusive: -32.3% [cytotoxic]
N=c1n(CCN2CCCC2)c2ccccc2n1CC(O)c1ccc(Cl)c(Cl)c1 (stereo unspecified) | inconclusive [cytotoxic, single point] | 
O=C(COC(=O)Cc1ccc(Br)cc1)NCc1ccccc1 | inactive | 
CSCCC(c1nc2ccccc2[nH]1)n1c(-c2cc(C(F)(F)F)cc(C(F)(F)F)c2)nc2ccccc21 (stereo unspecified) | active: 32.6 µM | 
